# Screen size: about 310,000 compounds; about 2,200 (0.71%) showed an effect of 50% or more. Effects have a minus sign here. Some of the results follow.
# Biological target: human ether-à-go-go-related gene (hERG) potassium channel (human, UniProt Q12809)
# Assay: primary screen, population patch clamp on CHO cells stably expressing hERG
# human ether-à-go-go-related gene (hERG) potassium channel, sequence (Q12809 whole entry, looked up): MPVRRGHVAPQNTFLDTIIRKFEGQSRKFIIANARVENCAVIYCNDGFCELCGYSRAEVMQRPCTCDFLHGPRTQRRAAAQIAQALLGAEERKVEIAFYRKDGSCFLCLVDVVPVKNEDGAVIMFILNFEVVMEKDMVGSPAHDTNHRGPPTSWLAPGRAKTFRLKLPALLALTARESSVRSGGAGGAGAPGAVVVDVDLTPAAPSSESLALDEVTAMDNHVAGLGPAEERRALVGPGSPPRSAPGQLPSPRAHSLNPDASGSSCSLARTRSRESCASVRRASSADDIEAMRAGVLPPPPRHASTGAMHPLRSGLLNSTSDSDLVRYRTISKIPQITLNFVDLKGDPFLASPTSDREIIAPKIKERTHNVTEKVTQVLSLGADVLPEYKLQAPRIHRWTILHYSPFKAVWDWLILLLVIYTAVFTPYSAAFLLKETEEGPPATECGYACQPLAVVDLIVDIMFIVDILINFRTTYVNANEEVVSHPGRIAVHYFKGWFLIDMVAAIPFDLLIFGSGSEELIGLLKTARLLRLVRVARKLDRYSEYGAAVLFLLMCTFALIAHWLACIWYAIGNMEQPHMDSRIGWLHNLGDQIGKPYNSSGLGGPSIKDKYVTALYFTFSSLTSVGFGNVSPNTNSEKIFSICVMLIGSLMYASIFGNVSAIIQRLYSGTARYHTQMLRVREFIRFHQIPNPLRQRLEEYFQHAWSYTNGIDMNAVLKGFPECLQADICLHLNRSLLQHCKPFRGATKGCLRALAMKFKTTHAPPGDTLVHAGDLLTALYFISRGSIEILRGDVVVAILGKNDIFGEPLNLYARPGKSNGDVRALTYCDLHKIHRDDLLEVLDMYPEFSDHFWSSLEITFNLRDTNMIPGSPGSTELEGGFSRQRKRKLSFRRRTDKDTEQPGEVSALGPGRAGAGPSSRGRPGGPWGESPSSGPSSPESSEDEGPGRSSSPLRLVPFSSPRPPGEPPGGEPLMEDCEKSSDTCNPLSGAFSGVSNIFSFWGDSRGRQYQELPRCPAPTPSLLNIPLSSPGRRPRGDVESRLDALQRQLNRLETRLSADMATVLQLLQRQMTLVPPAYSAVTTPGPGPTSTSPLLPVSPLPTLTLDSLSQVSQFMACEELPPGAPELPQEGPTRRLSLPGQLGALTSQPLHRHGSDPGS
row,SMILES,"hERG current change (%, negative = inhibition) at 1uM"
1,C=CCn1c(SCc2nc3scc(-c4ccccc4)c3c(=O)[nH]2)nnc1-c1ccccc1F,10.6%
2,COc1ccc(S(=O)(=O)N2CCN(C(=O)c3sccc3-c3ccccc3)CC2)cc1,-5.23%
3,O=C(NC1CCCc2ccccc21)C1CCN(c2c3c(nc4ncnn24)CCC3)CC1 (centres unmarked),3.52%
4,COC(=O)Cn1c(C)c(/C=C/c2cc[n+](C)cc2)c2ccccc21.[I-],9.68%
5,O=C1c2ccccc2C(=O)N1c1ncccn1,12.6%
6,CCCCOCCCNC(=O)c1ccc([N+](=O)[O-])c(C)c1,2.88%
7,Cc1noc(C)c1COC(=O)c1ccc(F)c(S(=O)(=O)N2CCOCC2)c1,10.3%
8,Cn1c(=O)cc(OCCCC(=O)NCc2ccco2)c2ccccc21,4.22%
9,CCOc1ccccc1NC(=O)c1ccccc1N(C)S(C)(=O)=O,11%
10,Cc1ccc(CCC(=O)Nc2ccccc2F)s1,4.84%
11,CC1CCC(N(CCCN)Cc2ccco2)CC1C (centres unmarked),5.82%
12,Cc1ccc2nc(-c3ccccc3)cc(C(=O)NCC(c3ccco3)N(C)C)c2c1 (centres unmarked),2.3%
13,O=C(CSc1n[nH]c(-c2ccccn2)n1)Nc1ccccc1,8.04%
14,CCc1c(C)nc2cc(-c3ccc(OC)c(OC)c3)nn2c1NCC1CC1,4.07%
15,CC1CCCN(c2ccc(C(=O)NCc3cccs3)cn2)C1 (centres unmarked),6.2%
16,Cc1cccc(CNCCc2c[nH]c3ccccc23)c1.O=C(O)C(=O)O,13.5%
17,O=C(NCc1ccccn1)c1ccc(N2CCCC2=O)cc1,13.7%
18,Cc1ccccc1-n1c(Cn2c(=O)sc3ccccc32)nnc1SCC(=O)Nc1nccs1,8.57%
19,CC(=O)C1=C(C)OC(N)=C(C(=O)OC(C)C)C12C(=O)Nc1ccccc12 (centres unmarked),-0.186%
20,NC(=O)c1ccccc1NS(=O)(=O)c1cccs1,14.6%
21,COc1ccc(CN=CC2=C(O)CC(C)(C)CC2=O)cc1,6.75%
22,CCOc1ccc(CNCCc2ccc(S(N)(=O)=O)cc2)cc1.Cl,-44.8%
23,CC1CN(c2nc3ccccc3nc2SCC(=O)Nc2ccc(F)cc2)CC(C)O1 (centres unmarked),8.9%

row,SMILES,"hERG current change (%, negative = inhibition) at 1uM"
1,COCc1cc(=O)n2[nH]c(-c3ccc(C)cc3)cc2n1,8.16%
2,CN1C[C@H](CO)C[C@@H]2c3cccc4[nH]cc(c34)C[C@H]21,6.89%
3,Cc1cc(C)cc(N(CC(=O)NC2CCCCCC2)S(=O)(=O)c2c(C)[nH]c(=O)[nH]c2=O)c1,8.18%
4,CCOC(=O)N1CCN(C(=O)Cn2nc(C)c3sc4ccccc4c3c2=O)CC1,8.38%
5,CN1CCC(N(C)C(=O)COc2ccccc2Cl)CC1,6.85%
6,O=C(Cn1cnc2c(oc3ccccc32)c1=O)c1ccccc1,-4.22%
7,COc1ccc(-c2csc(N(CCCN3CCOCC3)C(=O)c3ccco3)n2)cc1.Cl,-2.59%
8,Cc1nc(-c2ccccc2)sc1C(=O)CSc1ccc(F)cc1,-0.54%
9,COc1ccc(OC)c(NC(=O)c2ccc(OC3CSC3)cc2)c1,-2.97%
10,Cc1cc(C)n2c(SCC(=O)Nc3cc(C)on3)nnc2n1,-5%
11,COC(=O)c1cc(Br)c(N)cc1OC,12%
12,Nc1cc(=O)[nH]c(SCC(=O)Nc2cc(S(=O)(=O)N3CCOCC3)ccc2Cl)n1,-1.44%
13,CCOC(=O)C=C1CCN(c2ncc(C(F)(F)F)cc2Cl)CC1,10.6%
14,CCOc1ccc(NS(=O)(=O)c2cccc(C(=O)N(C)Cc3ccco3)c2)cc1,-7.06%
15,CCn1nc(C)c(/C=N/NC(=O)Cn2nnc(N)n2)c1C,-2.31%
16,CCOC(=O)/C=c1\s/c(=C(\C#N)C(=O)NC)n(-c2ccccc2)c1=O,9.88%
17,COCCN=C1N[C@@H](c2ccc(Br)cc2)C(C(=O)OC)=C(C)N1Cc1ccccc1,-7.8%
18,COc1ccc(CCNC(=O)c2cc(S(=O)(=O)N3CCOCC3)cn2C)cc1OC,2.52%
19,Nc1c(C(=O)NCC2CCCO2)c2nc3ccccc3nc2n1-c1ccccc1 (centres unmarked),14.8%
20,CCOC(=O)c1ccc(NC(=O)CSc2ncccn2)cc1,4.72%
21,Cc1c(O)ccc2c(CN3CCN(C/C=C/c4ccccc4)CC3)cc(=O)oc12,-36.2%
22,Cc1cccc(C(=O)N2CCCC(c3nc(-c4ccc(F)cc4)no3)C2)c1 (centres unmarked),14%
23,COc1ccc(CN2CCN(C(=O)Cn3nc(C)n4cccc4c3=O)CC2)c(OC)c1OC,13.6%

row,SMILES,"hERG current change (%, negative = inhibition) at 1uM"
1,COc1cc(/C=N/n2c(-c3n[nH]c4c3CCC4)n[nH]c2=S)ccc1O,15.9%
2,O=C(Cn1c(C(F)(F)F)nc2ccccc21)Nc1ccccc1C(=O)O,9.36%
3,Cc1cc(C)c(-c2cc(NC(=O)COC(=O)c3ccc(NC(=O)CC#N)cc3)n(-c3ccccc3)n2)cc1C,6.53%
4,Cc1oc2nc(SCC(=O)Nc3ccc(S(N)(=O)=O)cc3)nc(NC(=O)c3ccccc3)c2c1C,3.93%
5,Nc1cc(=O)[nH]c(SCCSc2ccccc2)n1,14.5%
6,CCOC(=O)c1ccc(NC(=O)CN(C)S(=O)(=O)c2ccc(Br)s2)cc1,13.3%
7,C=CCC(NC(=O)c1ccc(C#N)cc1)C(=O)NCCC (centres unmarked),16.5%
8,Cc1ccc(CCNC(=O)C2CCC(=O)N(Cc3cccc(F)c3)C2)cc1 (centres unmarked),11.1%
9,COc1ccccc1Nc1nc(-c2sc(NC(=O)c3cccc(Cl)c3)nc2C)cs1,19.1%
10,O=C(Nc1cccc(Cl)c1)N1CCSc2cc(Cl)ccc21,5.81%
11,NC(=O)c1ccsc1NC(=O)c1cccs1,4.93%
12,O=C(CCCc1ccccc1)N=C1SC2CS(=O)(=O)CC2N1c1ccccc1 (centres unmarked),17%
13,O=C(O)/C=C/C(=O)N1Cc2cc3ccccc3nc2C1,12.1%
14,COC(=O)C1(C)NC(c2ccccc2C)C2C(=O)N(c3ccccc3)C(=O)C21 (centres unmarked),10.2%
15,COc1cc(/C=C2/C(=N)N3C(=NC2=O)SN=C3S(C)(=O)=O)ccc1OC(=O)c1ccco1,21.4%
16,CCc1ccc(C(CC(=O)O)N2Cc3ccccc3C2=O)cc1 (centres unmarked),19%
17,O=C(COC(=O)C1CCN(S(=O)(=O)c2c(Cl)cccc2Cl)CC1)NCc1ccco1,4%
18,Cc1ccc(-c2nc(NCCN3CCOCC3)c3ccccc3n2)cc1,5.86%
19,Cc1ccc(C(=O)NC(=S)NCC2CCCO2)cc1[N+](=O)[O-] (centres unmarked),13.6%
20,O=c1[nH]c2ccccc2n1CCCSCCCn1c(=O)[nH]c2ccccc21,11.9%
21,Cc1ccc(OCCNc2ccc(C(F)(F)F)cc2[N+](=O)[O-])cc1,13.7%
22,CSCCC(NS(=O)(=O)c1ccc(Cl)cc1)C(=O)O (centres unmarked),10.4%
23,Cc1ccc2c(c1)N(CC(=O)NC1CCCC1)C(=O)c1cccnc1O2,4.29%

row,SMILES,"hERG current change (%, negative = inhibition) at 1uM"
1,COc1ccc2oc(C(=O)OCC(=O)NCCN3C(=O)CSC3=O)c(C)c2c1,0.741%
2,Cc1ccc(CSc2nnc(-c3ccccn3)n2N)cc1,13.4%
3,O=C(COc1ccccc1)Nc1ccc(Cl)cn1,3.14%
4,CN1C[C@@H]2C[C@@H](C3=Cc4cc(Cl)ccc4OC3)N3CCC[C@@]23C1=O,-2.11%
5,CCNc1nc(C)nc2c1oc1ccccc12.Cl,-0.858%
6,Cn1cccc1/C=N/NC(=O)CSc1nc2ccccc2n1C,16.1%
7,CC(OC(=O)c1ccc(Cl)c(S(N)(=O)=O)c1)C(=O)NCc1ccc2c(c1)OCO2 (centres unmarked),7.99%
8,CS(=O)(=O)c1ccccc1-c1nc(-c2ccc(C(F)(F)F)cc2)no1,14.3%
9,N#C/C(=C\c1ccco1)C(=O)NCc1ccccc1,5.93%
10,O=C(Nc1ccc(S(=O)(=O)N2CCCCC2)cc1)C1CCCCC1,3.03%
11,Cc1noc(C)c1C(=O)NCc1ccccc1Br,13.3%
12,CCOC(=O)c1c(C)[nH]c(C(=O)OC)c1CCC(=O)OC,14.5%
13,O=C(NCCCn1ccnc1)c1ccc(Br)o1,10.9%
14,CC[C@H](C)[C@H](NC(=O)c1ccccc1)C(=O)NC(CC(=O)O)c1ccc(F)cc1 (some centres unmarked),11.4%
15,CCn1c2ccccc2c2cc(NC(=O)COC(=O)c3ccccc3Br)ccc21,11.9%
16,Cc1ccc(CCNC(=O)CN2C(=O)COc3ccc(S(=O)(=O)N4CCOCC4)cc32)cc1,0.0514%
17,Nc1c2c(nc3ccccc13)CCC2.O=C(O)/C=C/C(=O)O,-1.77%
18,FC(F)Sc1nc(-c2ccccc2)c(-c2ccccc2)n1C(F)F,6.49%
19,CCN1C(=O)N[C@@H](c2ccccc2)C(C(=O)OC)=C1C,12.2%
20,Cc1ccc(/C=N/NC(=O)CSc2nc3nc(C)cc(C)n3n2)cc1,4.52%
